# Measurements: PubChem BioAssay AID463173 (ICCB-Longwood Screening Facility, Harvard Medical School, 2010)
# Hit rate of the full screen: of about 52,000 compounds, about 1,700 (3.3%) were called active. Rule as the data show it: active = survival mostly below about 52% (no sharp cut-off); inactive = mostly above about 56%. The list shows a part of the results.
# Test system: Wild type
# Assay: S. aureus survival, RN4220 and DeltatarO strains – OD600, teichoic acid synthesis inhibitors, primary screen (AID 463173)
# Conditions: S. aureus RN4220 wild type/DeltatarO growth, OD600, 18 h, active compounds read low, screened at 18.75 µg/mL (by protocol)
row,SMILES,survival
1,CCCN1C(=O)C2(c3ccccc31)c1c(oc3cc(C)c(C)cc3c1=O)C(=O)N2CCCOC (stereo unspecified),inactive: 83%
2,Nc1nc2n(n1)C(c1cccs1)CC(c1ccc(Cl)cc1Cl)N2 (stereo unspecified),inactive: 106%
3,COc1ccc(CC(=O)NC2CCN(CC(=O)Nc3ccc4c(c3)CCC4)CC2)cc1OC,inactive: 116%
4,COc1cccc(CNC(=O)CCc2c(C)nn(-c3ccc(N4CCOCC4)nn3)c2C)c1,inactive: 143%
5,COc1ccc(S(=O)(=O)N(C)CC(=O)N2CCCC2)cc1,inactive: 101%
6,O=C(CC1C(=O)N(c2ccccc2)C(=O)N1CCc1cccs1)Nc1ccc(Cl)cc1 (stereo unspecified),inactive: 69%
7,Cc1c(C(=O)Nc2cccc(C(F)(F)F)c2)oc2ccc(S(=O)(=O)N(C)C3CCCCC3)cc12,inactive: 80%
8,Cc1nnc(SCC(=O)O)o1,inactive: 118%
9,CCNC(=O)c1ccc(-n2c(-c3ccccc3)cc3c2CCCCC3)cc1,inactive: 84%
10,COc1ccc(OC)c(NC(=O)[C@H](Cc2ccccc2)N2Cc3ccccc3C2=O)c1,inactive: 127%
11,CC(=O)Nc1nonc1-c1nnc(SCc2ccc(C)cc2)n1C,inactive: 83%
12,CCOC(=O)CNc1ncnc2c1nnn2C,inactive: 22%
13,CCCc1cc(=O)[nH]c2nnc(SCC(=O)Nc3cccc(C)c3)n12,inactive: 99%
14,Cc1cccn2c(=O)c(/C=C(\C#N)c3nc4ccccc4n3C)c(Oc3ccc(Cl)cc3)nc12,inactive: 56%
15,CCCNC(=O)c1c2c(nc3ccccc13)C(=O)N(C1CCCCC1)C2,inactive: 59%
16,COc1cccc(-c2cc(C(=O)Nc3ccc(F)cc3)[nH]n2)c1,inactive: 102%
17,O=C(NCC1CCCO1)Nc1ccccc1 (stereo unspecified),inactive: 105%
18,CC1CCN(S(=O)(=O)c2ccc(S(=O)(=O)NCc3ccccc3)cc2)CC1,inactive: 104%
19,COc1ccc(OC)c(NC(=O)CCN2CCC(C)CC2)c1,inactive: 111%

row,SMILES,survival
1,CC1C(=O)N2CCCc3cc(S(=O)(=O)Nc4ccc(Br)cc4F)cc1c32 (stereo unspecified),inactive: 72%
2,CCOc1cc(-c2nnc(SCC(=O)NCc3ccc(C)cc3)nc2-c2ccc(OC)c(OCC)c2)ccc1OC,inactive: 70%
3,COc1ccc(OC)c(NC(=O)c2nc(SCc3ccccc3F)ncc2Cl)c1,inactive: 101%
4,COc1cccc(NC(=O)C2CCCN2S(=O)(=O)c2ccc3c(c2)n(C)c(=O)c(=O)n3C)c1 (stereo unspecified),inactive: 68%
5,CCc1cccc(-n2c(=O)c3cccnc3n2CC(=O)Nc2ccccc2C(=O)OC)c1,inactive: 102%
6,CCOc1ccc(NC(=O)c2ccc3nc(Cc4ccccc4)oc3c2)cc1,inactive: 101%
7,Cc1ccc2oc(C(=O)Nc3sc4c(c3C(=O)NCc3ccccc3)CCCC4)cc(=O)c2c1,inactive: 83%
8,CCC1CN(C(=O)Nc2cc(OC)cc(OC)c2)c2ccccc2S1 (stereo unspecified),inactive: 113%
9,COc1ccc(-n2nc3cc(C)c(NC(=O)c4ccc(C)cc4C)cc3n2)cc1Cl,inactive: 69%
10,Cc1ccccc1NC(=O)N1CCC(CN2CCCC2)CC1,inactive: 70%
11,Cc1ccc(OCC(=O)OCc2cc(=O)n3c(C)csc3n2)cc1,inactive: 82%
12,CCC(=O)N1CCc2cc(S(=O)(=O)NC(Cc3ccccc3)C(=O)NCc3ccc(F)cc3)ccc21 (stereo unspecified),inactive: 83%
13,N#CC1=C2SCN(C3CCCCC3)CN2C(=O)CC1c1ccc(F)cc1 (stereo unspecified),inactive: 87%
14,O=C(CSc1nc2c([nH]c3ccccc32)c(=O)n1-c1ccccc1)Nc1ccccc1F,inactive: 72%
15,Cc1ccc(-c2c(C)n3c4c(=O)n(C)c(=O)n(C)c4nc3n2CCCO)cc1,inactive: 80%
16,CCOc1ccc(NC(=O)C2CCCN(S(=O)(=O)c3ccc(Br)s3)C2)cc1 (stereo unspecified),inactive: 75%
17,COc1ccc(C(=O)Nc2cccc(-c3nc4cccnc4s3)c2C)c(OC)c1,inactive: 118%
18,CCOC(=O)c1ccccc1NC(=O)Cn1c(=O)n(Cc2ccc(C(=O)NCc3ccc4c(c3)OCO4)cc2)c(=O)c2ccccc21,inactive: 95%
19,CC(=O)N1c2c(cc(Br)cc2S(=O)(=O)Nc2ccccc2C)CC1C (stereo unspecified),inactive: 64%

row,SMILES,survival
1,Cc1cccc(C(=O)NC(=O)Nc2ccc(-n3nc(C(F)(F)F)cc3C(F)(F)F)cc2)c1,inactive: 78%
2,CC(=O)N1CCCc2cc(S(=O)(=O)N3CCC(N(C)C(C)C)CC3)ccc21,inactive: 128%
3,CCOc1cc(Br)c(C2C(C(=O)OC)=C(C)NC3=C2C(=O)c2ccccc23)cc1OCC (stereo unspecified),inactive: 96%
4,COCCCNC(=O)C1CCN(c2ncnc3c2nc2n3CCCCC2)CC1,inactive: 89%
5,O=C(Nc1cccc(C(F)(F)F)c1)c1ccc(F)c(S(=O)(=O)N2CCc3ccccc3C2)c1,inactive: 81%
6,Cc1c2cnn(CC(=O)NCc3ccc(F)cc3)c(=O)c2c(C)n1Cc1ccccc1Cl,inactive: 94%
7,COc1ccc(-c2nc(C)c(CCNC(=O)c3ccccc3Br)s2)cc1OC,inactive: 64%
8,COc1cccc(Cn2cnc3c2c(=O)n(C)c(=O)n3C)c1,inactive: 135%
9,COc1ccc2c(c1)c1c(c(=O)n(-c3ccc(C)cc3)c(=O)n1CC(=O)Nc1cc(C)ccc1C)n2C,inactive: 115%
10,Cc1nc2c(C(=O)NCCC(C)C)cnn2c(C)c1Cc1c(F)cccc1Cl,inactive: 45%
11,CCC(C)NC(=O)C1CCN(S(=O)(=O)c2ccc3c(ccn3CC)c2)CC1 (stereo unspecified),active: 0%
12,O=C(O)c1ccccc1NC(=O)N1c2ccccc2Sc2ccccc21,inactive: 28%
13,COc1ccccc1CNC(=O)c1cc2cc(S(=O)(=O)N3CCCCC3)ccc2n1C,inactive: 83%
14,CCOC(=O)C1CCCN(C(=O)C2CCN(S(=O)(=O)c3c(C)noc3/C=C/c3ccc(C)cc3)CC2)C1 (stereo unspecified),inactive: 66%
15,COc1cccc2sc(N(Cc3cccnc3)C(=O)c3ccc(S(=O)(=O)N(C)C)cc3)nc12,inactive: 77%
16,COc1cc2c(cc1OC)C(c1cc(OC)c(O)c(OC)c1)CC(=O)N2 (stereo unspecified),inactive: 80%
17,CC1CCCN(Cc2c(O)ccc3c(=O)c(-c4ccc(Cl)cc4)c(C(F)(F)F)oc23)C1 (stereo unspecified),inactive: 71%
18,Cc1cc(OCC(=O)Nc2ncn[nH]2)c(C)c(C)c1Br,inactive: 133%
